Experimental data published in the supplement of paper PMC10369915.
The list shows a part of the results. Cut-off read from the data, not from the text of the source: active = 3.2 or more and inactive = the rest. Most of these values are background signal.

Key:
Experiment in all cases: enrichment score (SH2-bound / input frequency) (ratio); bacterial display of known human phosphotyrosine sites (pTyr-Var adds point mutants) read by sequencing; higher = stronger binding; tyrosines were phosphorylated by kinases first
SHP2 C-SH2 domain E139D = biological target: SHP2 C-SH2 domain E139D
[1] = biological target: SHP2 C-SH2 domain wild-type
SHP2 N-SH2 domain L43F = biological target: SHP2 N-SH2 domain L43F
SHP2 N-SH2 domain T42A = biological target: SHP2 N-SH2 domain T42A
SHP2 N-SH2 domain T52S = biological target: SHP2 N-SH2 domain T52S
[2] = biological target: SHP2 N-SH2 domain wild-type

Measured: enrichment score
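Note: displayed peptides selected on beads carrying the immobilized SH2 domain, with library peptides lacking any tyrosine serving as negative controls.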

DLTAGNRYKNVKLPD [G6PD_HUMAN_428_YA]
inactive: SHP2 C-SH2 domain E139D; peptide library: Human pTyr 0.876 | [1]; peptide library: Human pTyr 0.621 | SHP2 N-SH2 domain L43F; peptide library: Human pTyr 0.646 | SHP2 N-SH2 domain T42A; peptide library: Human pTyr 0.617 | SHP2 N-SH2 domain T52S; peptide library: Human pTyr 0.771 | [2]; peptide library: Human pTyr 0.79

CFERASEYQLNDSAG [GNAT1_HUMAN_142]
inactive: SHP2 C-SH2 domain E139D; peptide library: Human pTyr 1.35 | [1]; peptide library: Human pTyr 0.964 | SHP2 N-SH2 domain L43F; peptide library: Human pTyr 1.13 | SHP2 N-SH2 domain T42A; peptide library: Human pTyr 1.02 | SHP2 N-SH2 domain T52S; peptide library: Human pTyr 1.31 | [2]; peptide library: Human pTyr 1.72

KFSHSGRYMMTRDYL [2ABD_HUMAN_305]
active: [1]; peptide library: Human pTyr 3.5 | SHP2 N-SH2 domain T52S; peptide library: Human pTyr 3.54 | [2]; peptide library: Human pTyr 4.06
inactive: SHP2 C-SH2 domain E139D; peptide library: Human pTyr 2.82 | SHP2 N-SH2 domain L43F; peptide library: Human pTyr 2.96 | SHP2 N-SH2 domain T42A; peptide library: Human pTyr 3.01

NHIGHTGYLNTVTVS [GNB2L1_HUMAN_194]
inactive: SHP2 C-SH2 domain E139D; peptide library: Human pTyr 0.722 | [1]; peptide library: Human pTyr 0.592 | SHP2 N-SH2 domain L43F; peptide library: Human pTyr 0.613 | SHP2 N-SH2 domain T42A; peptide library: Human pTyr 0.685 | SHP2 N-SH2 domain T52S; peptide library: Human pTyr 0.543 | [2]; peptide library: Human pTyr 0.762

TEADGELYVFNTPSG [GAB1_HUMAN_285]
inactive: SHP2 C-SH2 domain E139D; peptide library: Human pTyr 0.748 | [1]; peptide library: Human pTyr 0.663 | SHP2 N-SH2 domain L43F; peptide library: Human pTyr 0.768 | SHP2 N-SH2 domain T42A; peptide library: Human pTyr 0.722 | SHP2 N-SH2 domain T52S; peptide library: Human pTyr 0.752 | [2]; peptide library: Human pTyr 0.778

KDCGSQKYAAFNGCS [GJA1_HUMAN_265_YA]
inactive: SHP2 C-SH2 domain E139D; peptide library: Human pTyr 0.919 | [1]; peptide library: Human pTyr 0.875 | SHP2 N-SH2 domain L43F; peptide library: Human pTyr 0.815 | SHP2 N-SH2 domain T42A; peptide library: Human pTyr 0.773 | SHP2 N-SH2 domain T52S; peptide library: Human pTyr 0.703 | [2]; peptide library: Human pTyr 0.896

SAPVTAFYRGCMTLE [GAS6_HUMAN_683]
inactive: SHP2 C-SH2 domain E139D; peptide library: Human pTyr 1.22 | [1]; peptide library: Human pTyr 1.25 | SHP2 N-SH2 domain L43F; peptide library: Human pTyr 1.27 | SHP2 N-SH2 domain T42A; peptide library: Human pTyr 1.34 | SHP2 N-SH2 domain T52S; peptide library: Human pTyr 1.45 | [2]; peptide library: Human pTyr 1.97

GNSAEEAYENVPCKA [GCSAM_HUMAN_107_YA]
inactive: SHP2 C-SH2 domain E139D; peptide library: Human pTyr 0.98 | [1]; peptide library: Human pTyr 0.716 | SHP2 N-SH2 domain L43F; peptide library: Human pTyr 0.873 | SHP2 N-SH2 domain T42A; peptide library: Human pTyr 0.848 | SHP2 N-SH2 domain T52S; peptide library: Human pTyr 0.869 | [2]; peptide library: Human pTyr 1.05

GFQYEGTYKWVNPHK [G6PD_HUMAN_507]
inactive: SHP2 C-SH2 domain E139D; peptide library: Human pTyr 1.07 | [1]; peptide library: Human pTyr 1.1 | SHP2 N-SH2 domain L43F; peptide library: Human pTyr 0.964 | SHP2 N-SH2 domain T42A; peptide library: Human pTyr 1.1 | SHP2 N-SH2 domain T52S; peptide library: Human pTyr 1.1 | [2]; peptide library: Human pTyr 1.18

ENRKYYKDLKE [PURA_Y156_M157K]
inactive: SHP2 C-SH2 domain E139D; peptide library: pTyr-Var 0.717 | [1]; peptide library: pTyr-Var 0.913 | SHP2 N-SH2 domain L43F; peptide library: pTyr-Var 0.894 | SHP2 N-SH2 domain T42A; peptide library: pTyr-Var 0.944 | SHP2 N-SH2 domain T52S; peptide library: pTyr-Var 0.844 | [2]; peptide library: pTyr-Var 0.787

VHVPAGLYRIRKGVS [GIT1_HUMAN_554]
inactive: SHP2 C-SH2 domain E139D; peptide library: Human pTyr 0.694 | [1]; peptide library: Human pTyr 0.765 | SHP2 N-SH2 domain L43F; peptide library: Human pTyr 0.723 | SHP2 N-SH2 domain T42A; peptide library: Human pTyr 0.737 | SHP2 N-SH2 domain T52S; peptide library: Human pTyr 0.802 | [2]; peptide library: Human pTyr 1.03

ELEDDAIYSVHVPAG [GIT1_HUMAN_545]
inactive: SHP2 C-SH2 domain E139D; peptide library: Human pTyr 0.894 | [1]; peptide library: Human pTyr 0.677 | SHP2 N-SH2 domain L43F; peptide library: Human pTyr 0.735 | SHP2 N-SH2 domain T42A; peptide library: Human pTyr 0.728 | SHP2 N-SH2 domain T52S; peptide library: Human pTyr 0.803 | [2]; peptide library: Human pTyr 0.945

ERLVECQYELTDRLA [GIT1_HUMAN_224]
inactive: SHP2 C-SH2 domain E139D; peptide library: Human pTyr 1.31 | [1]; peptide library: Human pTyr 1.22 | SHP2 N-SH2 domain L43F; peptide library: Human pTyr 1.47 | SHP2 N-SH2 domain T42A; peptide library: Human pTyr 1.6 | SHP2 N-SH2 domain T52S; peptide library: Human pTyr 1.41 | [2]; peptide library: Human pTyr 1.61

VLCEVFKYNRRPAET [GLNA_HUMAN_104]
inactive: SHP2 C-SH2 domain E139D; peptide library: Human pTyr 2.18 | [1]; peptide library: Human pTyr 1.65 | SHP2 N-SH2 domain L43F; peptide library: Human pTyr 2.08 | SHP2 N-SH2 domain T42A; peptide library: Human pTyr 1.84 | SHP2 N-SH2 domain T52S; peptide library: Human pTyr 2.09 | [2]; peptide library: Human pTyr 2.02

CLPEHNPYRPSYSYD [AKAP8_HUMAN_146]
inactive: SHP2 C-SH2 domain E139D; peptide library: Human pTyr 1.22 | [1]; peptide library: Human pTyr 1.3 | SHP2 N-SH2 domain L43F; peptide library: Human pTyr 1.09 | SHP2 N-SH2 domain T42A; peptide library: Human pTyr 1.09 | SHP2 N-SH2 domain T52S; peptide library: Human pTyr 1.25 | [2]; peptide library: Human pTyr 1.31

PVGVLYEVKVF [PTS_Y128_K129E_YF]
inactive: SHP2 C-SH2 domain E139D; peptide library: pTyr-Var 1.21 | [1]; peptide library: pTyr-Var 1.52 | SHP2 N-SH2 domain L43F; peptide library: pTyr-Var 1.51 | SHP2 N-SH2 domain T42A; peptide library: pTyr-Var 1.34 | SHP2 N-SH2 domain T52S; peptide library: pTyr-Var 1.16 | [2]; peptide library: pTyr-Var 1.55

FLPVNPEYSATRNQG [GIT1_HUMAN_321]
inactive: SHP2 C-SH2 domain E139D; peptide library: Human pTyr 0.607 | [1]; peptide library: Human pTyr 0.611 | SHP2 N-SH2 domain L43F; peptide library: Human pTyr 0.526 | SHP2 N-SH2 domain T42A; peptide library: Human pTyr 0.64 | SHP2 N-SH2 domain T52S; peptide library: Human pTyr 0.81 | [2]; peptide library: Human pTyr 0.554

KSTGSVDYLALDFQP [GAB2_HUMAN_614]
inactive: SHP2 C-SH2 domain E139D; peptide library: Human pTyr 0.697 | [1]; peptide library: Human pTyr 0.778 | [2]; peptide library: Human pTyr 1.24
active: SHP2 N-SH2 domain L43F; peptide library: Human pTyr 7.51 | SHP2 N-SH2 domain T42A; peptide library: Human pTyr 9.36 | SHP2 N-SH2 domain T52S; peptide library: Human pTyr 4.42
